Source: patent US11034759B2, “Humanized M-CSF specific monoclonal antibodies, kits, and uses thereof” (NOVARTIS VACCINES AND DIAGNOSTICS, INC., priority 2004, dated 2021)

T1: MCSF (Homo sapiens, UniProt P09603)
T1 sequence (P09603 33-255 limits assumed): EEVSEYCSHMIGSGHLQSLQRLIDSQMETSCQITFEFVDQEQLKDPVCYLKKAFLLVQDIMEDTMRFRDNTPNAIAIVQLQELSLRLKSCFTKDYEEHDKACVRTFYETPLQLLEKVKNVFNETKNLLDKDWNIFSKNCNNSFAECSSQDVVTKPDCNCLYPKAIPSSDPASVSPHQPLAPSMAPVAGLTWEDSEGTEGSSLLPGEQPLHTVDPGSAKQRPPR


Columns and labels:
[1] = target: T1, MCSF; experiment: M-CSF-dependent cell proliferation, intact antibody versus Fab fragments; assay type: cell-based; details: chemiluminescent dye
Method: The cell proliferation was determined by chemiluminescent dye.

[2] = target: T1, MCSF; experiment: Biacore analysis, M-CSF immobilized, intact Mab or Fab flowed over (Example 11); assay type: binding; details: Table 9, 25° C., 1:1 interaction model
Method: Specifically, M-CSF was immobilized onto CMS biosensor chip via amine coupling. 0.05 μg/ml M-CSF in 10 mM Na Acetate pH 4.0 was injected at 1 μl/min for 5 minutes to achieve RL=6-12 RU. Test antibody (or Fab fragment) were flowed over the modified biosensor surface at varying concentrations. Test antibodies were diluted in 0.01 M HEPES pH 7.4, 0.15 M NaCL, 3 mM EDTA, 0.005% Surfactant P20 (HBS-EP) and all experiments were done at 25° C. Kinetic and affinity constants were determined using Biaevaluation software (Biacore) with a 1:1 interaction model/global fit.

| Neutralization potency, intact versus Fab [1] | Ka [2] | Kd [2] | Molecule |
| --- | --- | --- | --- |
| loses its potency | 281000 M⁻¹ s⁻¹ | 0.00303 s⁻¹ | rRX1 Fab (mouse): Fab fragment of RX1 (antibody, V domains shown) VH: DVQLQESGPGLVKPSQSLSLTCTVTDYSITSDYAWNWIRQFPGNKLEWMGYISYSGSTSYNPSLKSRISITRDTSKNQFFLQLNSVTTEDTATYYCASFDYAHAMDYWGQGTSVTVSS VL: DILLTQSPAILSVSPGERVSFS[about 80 residues cut from this listing]FGGGTKLEIKRA |
|  | 234000 M⁻¹ s⁻¹ | 0.000235 s⁻¹ | rRX1(mouse): recombinant murine RX1 antibody (antibody, V domains shown) VH: DVQLQESGPGLVKPSQSLSLTCTVTDYSITSDYAWNWIRQFPGNKLEWMGYISYSGSTSYNPSLKSRISITRDTSKNQFFLQLNSVTTEDTATYYCASFDYAHAMDYWGQGTSVTVSS VL: DILLTQSPAILSVSPGERVSFS[about 80 residues cut from this listing]FGGGTKLEIKRA |
